Values of other authors, collected in patent US20240390359A1, “METHODS FOR THE TREATMENT AND PREVENTION OF NON-VIRAL TICK-BORNE DISEASES AND SYMPTOMS THEREOF” (priority 2023, published 2024).

Test system: P. falciparum gametocytes
Details: single dose 1.66 mg/kg combined with dihydroartemisinin/piperaquine; cited from earlier work

For COc1cc(C)c2c(Oc3cccc(C(F)(F)F)c3)c(OC)cc(NC(C)CCCN)c2n1 (stereo not shown) [tafenoquine, N (4)-[2,6-Dimethoxy-4-methyl-5-[3-(trifluoromethyl)phenoxy]quinolin-8-yl] pentane-1,4-diamine], the “time until gametocytes non-infectious to mosquitoes” value is given as “within seven days”.
